Experimental findings from the supplement of paper PMC3334620 are described below.

In all, about 33,000 sequences were measured (“E-score (-0.5 to 0.5)”: median about -0.012, highest 2% from about 0.27 on). The list shows a part of the results.

The assay has as its target T1, Vhr1 (UniProt P40522).
T1 sequence: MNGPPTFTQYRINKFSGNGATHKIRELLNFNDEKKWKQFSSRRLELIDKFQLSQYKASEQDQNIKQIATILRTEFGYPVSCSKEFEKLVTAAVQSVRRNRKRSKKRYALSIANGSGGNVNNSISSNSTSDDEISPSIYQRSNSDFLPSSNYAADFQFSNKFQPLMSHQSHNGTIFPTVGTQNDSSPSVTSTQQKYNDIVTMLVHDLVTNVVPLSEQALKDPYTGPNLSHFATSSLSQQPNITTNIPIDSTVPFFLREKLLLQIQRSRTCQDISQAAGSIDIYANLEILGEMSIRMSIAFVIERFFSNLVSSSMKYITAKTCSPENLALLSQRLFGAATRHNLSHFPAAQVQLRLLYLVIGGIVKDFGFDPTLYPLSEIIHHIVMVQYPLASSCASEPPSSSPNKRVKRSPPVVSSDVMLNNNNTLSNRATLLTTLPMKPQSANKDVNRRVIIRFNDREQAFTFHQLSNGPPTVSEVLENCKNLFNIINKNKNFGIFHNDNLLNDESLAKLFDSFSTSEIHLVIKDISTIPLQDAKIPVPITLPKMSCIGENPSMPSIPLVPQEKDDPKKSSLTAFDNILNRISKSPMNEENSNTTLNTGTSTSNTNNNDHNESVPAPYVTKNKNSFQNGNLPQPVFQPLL
In words: PBM E-score (8-mer binding enrichment) (E-score (-0.5 to 0.5)); higher = stronger / more preferred TF binding; most listed sequences are background and not binding sites. Conditions: protein concentration: 200 nM; construct: GST-full length. The gist of the method: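 GST-tagged yeast TFs (full-length or DNA-binding domain) were made by PURExpress in vitro transcription/translation and applied at about 100-200 nM to universal all-10-mer Agilent arrays. The arrays were made double-stranded by primer extension, on fresh or once-stripped slides. Bound protein was detected with fluorescent anti-GST, and scans were normalised with masliner. Each ungapped eight-base word, pooled with its reverse complement, received an E-score (modified Wilcoxon-Mann-Whitney statistic) from the Universal PBM Analysis Suite.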
As to GGGCCCAA, the “PBM E-score” value was -0.0359.

Consider CACGTGTC, for which the “PBM E-score” value is 0.0728.

As to GGGATTGA, the “PBM E-score” value is -0.131.

Take AAATCTAA: the “PBM E-score” value was -0.17.

Consider AGTTTTGA, for which the “PBM E-score” value amounted to 0.00733.

For the sequence CGGTATAC, the “PBM E-score” value was found to be 0.0514.

In the case of GGTATGCA, the “PBM E-score” value worked out at 0.0684.

Regarding GGCTCGAC, the “PBM E-score” value is 0.0349.

Take GCCTCACC: the “PBM E-score” value is -0.101.

As for CAGTATGC, the “PBM E-score” value was 0.0528.

Take AGTGTAAA: the “PBM E-score” value was -0.00712.

On to TATCTCGA, for which the “PBM E-score” value was -0.21.

Take CGCTTGGA: the “PBM E-score” value is -0.0381.

On to AGAGGCCT, for which the “PBM E-score” value was -0.267.

With AAGGTTGC, the “PBM E-score” value is -0.146.

ATCGATGG: the “PBM E-score” value is 0.207.

GTGCCAGA: the “PBM E-score” value was -0.146.

For the sequence ACCTTCGG, the “PBM E-score” value was found to be 0.0284.

Take CCATATTC: the “PBM E-score” value amounted to 0.0327.

With ATCAGCCC, the “PBM E-score” value was found to be 0.197.

Turning to CAATGTCC, the “PBM E-score” value is 0.00719.

For the sequence CCCCACCC, the “PBM E-score” value worked out at 0.36.

With CCCTACGC, the “PBM E-score” value was -0.147.

On to CTTCAGAA, for which the “PBM E-score” value was -0.201.

As for GCCTGAAC, the “PBM E-score” value was -0.146.

On to GGGCCACC, for which the “PBM E-score” value was 0.096.

Consider GTGTTTCA, for which the “PBM E-score” value was -0.00837.

Regarding AAAGGAAA, the “PBM E-score” value was -0.0406.

For ATGTAACA, the “PBM E-score” value is 0.127.

As to CTCGGCGA, the “PBM E-score” value was determined as 0.111.

On to GCTATAAC, for which the “PBM E-score” value was -0.107.

On to AGGAAGGC, for which the “PBM E-score” value is -0.107.

Take AAAGGGTA: the “PBM E-score” value was -0.106.

AAGCGCCC: the “PBM E-score” value is 0.0488.

For CGAGTCTA, the “PBM E-score” value was -0.0817.

With TCAAATCA, the “PBM E-score” value was -0.025.

For the sequence CAAGGGGA, the “PBM E-score” value was -0.157.

For GAACATTA, the “PBM E-score” value was -0.0846.

Take ATTGCCTG: the “PBM E-score” value amounted to 0.0234.

Consider AGGGCCTG, for which the “PBM E-score” value was -0.0748.

On to CCATCACA, for which the “PBM E-score” value amounted to 0.0295.

As to CACGGATG, the “PBM E-score” value is -0.0264.

Take AACTGATG: the “PBM E-score” value was determined as 0.106.

As to AGTATTAG, the “PBM E-score” value is 0.222.

For CGGTGACC, the “PBM E-score” value was -0.121.

Take AGCAACCA: the “PBM E-score” value turned out to be 0.24.

Take AAATCGGC: the “PBM E-score” value was -0.136.

Consider AAAAACCT, for which the “PBM E-score” value is -0.0735.

Take CTGCCCGA: the “PBM E-score” value amounted to 0.0321.

On to AAAGAGCA, for which the “PBM E-score” value is -0.155.

Consider GTTGCTCA, for which the “PBM E-score” value was -0.0502.

On to GAGTTTCC, for which the “PBM E-score” value is -0.284.

On to CGGGACAG, for which the “PBM E-score” value came to 0.034.

For the sequence AGCGCCAA, the “PBM E-score” value was -0.0793.

Turning to GTTACCAA, the “PBM E-score” value turned out to be 0.0611.

On to ACAGAGTC, for which the “PBM E-score” value stood at 0.296.

Consider ACTCACCT, for which the “PBM E-score” value came out at 0.244.

Consider GTACGAAA, for which the “PBM E-score” value was -0.0549.

As for ACTCTAGG, the “PBM E-score” value is -0.072.

As for GAACTATA, the “PBM E-score” value was found to be 0.222.

In the case of CCGAGAGA, the “PBM E-score” value came to 0.111.

Regarding CGGACAGC, the “PBM E-score” value was -0.164.

Regarding ACGCGCGA, the “PBM E-score” value worked out at 0.173.

On to AACTCATA, for which the “PBM E-score” value is 0.141.

As to AGTTATAT, the “PBM E-score” value came to 0.209.

Consider CTTAATCC, for which the “PBM E-score” value was -0.0876.

Regarding CATCGGTA, the “PBM E-score” value is 0.0677.

With GCAGTCCC, the “PBM E-score” value stood at 0.106.

Regarding GGGGTGAA, the “PBM E-score” value came to 0.0563.

Regarding GTTCTTAA, the “PBM E-score” value is -0.119.

In the case of CTTTCTGC, the “PBM E-score” value is -0.0509.

Take GTCATAGA: the “PBM E-score” value amounted to 0.13.

As to CCGTGAAG, the “PBM E-score” value is -0.286.

Take ATTGGTGG: the “PBM E-score” value was found to be 0.041.

On to ACGTACAT, for which the “PBM E-score” value was 0.0383.

As to ATTGCTCG, the “PBM E-score” value is -0.0231.

With CCGTCTAC, the “PBM E-score” value is -0.0423.

For CTTTCAAA, the “PBM E-score” value is -0.0961.

For CACGCCTC, the “PBM E-score” value is -0.0306.

As to CCGAGGCA, the “PBM E-score” value was -0.0613.

Regarding AAACGGAT, the “PBM E-score” value was determined as 0.144.

For GCACTTAA, the “PBM E-score” value was -0.0709.

Turning to GCCGAATA, the “PBM E-score” value was 0.0476.

For ACCTGACT, the “PBM E-score” value came out at 0.374.

Turning to AACTATAG, the “PBM E-score” value is -0.0781.

For the sequence GGTGCACC, the “PBM E-score” value is -0.187.
